# Results from PMC4336329 (PLoS ONE, 2015).
# Among all 310,000 compounds or so, about 14,000 (4.5%) showed an effect of 50% or more. Effects have a minus sign here. The list shows a part of the results.
# Target: human ether-à-go-go-related gene (hERG) potassium channel (human, UniProt Q12809)
# Assay: primary screen, population patch clamp on CHO cells stably expressing hERG
# 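Further: peak tail current of the secondary pulse compared with the same well before compound.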
# Sequence of human ether-à-go-go-related gene (hERG) potassium channel (Q12809 whole entry, looked up): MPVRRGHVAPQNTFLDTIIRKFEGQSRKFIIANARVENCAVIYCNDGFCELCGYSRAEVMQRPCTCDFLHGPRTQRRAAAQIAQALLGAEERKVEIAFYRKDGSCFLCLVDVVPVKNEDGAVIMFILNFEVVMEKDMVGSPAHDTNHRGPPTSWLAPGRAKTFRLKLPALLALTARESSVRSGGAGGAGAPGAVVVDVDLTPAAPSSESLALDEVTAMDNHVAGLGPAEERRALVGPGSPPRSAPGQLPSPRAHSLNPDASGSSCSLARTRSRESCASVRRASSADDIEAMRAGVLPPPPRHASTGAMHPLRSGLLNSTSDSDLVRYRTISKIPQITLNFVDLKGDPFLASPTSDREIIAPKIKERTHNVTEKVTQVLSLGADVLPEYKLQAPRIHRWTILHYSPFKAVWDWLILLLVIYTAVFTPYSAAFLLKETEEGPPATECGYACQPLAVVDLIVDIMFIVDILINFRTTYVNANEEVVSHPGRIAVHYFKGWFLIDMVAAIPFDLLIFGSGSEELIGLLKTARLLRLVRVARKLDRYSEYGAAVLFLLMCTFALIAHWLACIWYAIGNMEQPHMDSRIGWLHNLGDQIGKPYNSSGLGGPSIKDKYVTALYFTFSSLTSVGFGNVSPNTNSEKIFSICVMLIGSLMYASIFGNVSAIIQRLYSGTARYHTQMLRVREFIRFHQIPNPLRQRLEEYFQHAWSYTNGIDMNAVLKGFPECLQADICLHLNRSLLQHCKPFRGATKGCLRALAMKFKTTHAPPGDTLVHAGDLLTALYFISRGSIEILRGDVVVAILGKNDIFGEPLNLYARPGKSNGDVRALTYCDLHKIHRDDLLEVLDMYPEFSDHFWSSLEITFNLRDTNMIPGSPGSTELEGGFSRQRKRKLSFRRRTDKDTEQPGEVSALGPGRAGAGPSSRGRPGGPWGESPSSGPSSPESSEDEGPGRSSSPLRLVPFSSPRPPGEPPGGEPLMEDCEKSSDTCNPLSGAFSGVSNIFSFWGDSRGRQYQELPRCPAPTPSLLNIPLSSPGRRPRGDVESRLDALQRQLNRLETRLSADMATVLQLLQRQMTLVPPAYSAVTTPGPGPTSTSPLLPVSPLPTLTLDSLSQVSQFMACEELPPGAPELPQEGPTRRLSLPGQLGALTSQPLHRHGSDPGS
row,SMILES,"hERG current change (%, negative = inhibition) at 10uM [%]"
1,CCCCCN(C(=O)CCC(=O)OCc1ccc(Cl)cc1Cl)c1c(N)n(CCCC)c(=O)[nH]c1=O,-50.1
2,C/C(=N\Oc1cccc(F)n1)c1ccc(Cl)cc1Cl,15.5
3,O=C1OC(c2ccc(Cl)cc2)=C/C1=C/c1cccnc1,23.3
4,Cc1cc(OC2CCCCC2)nc(NCc2ccccc2)n1,1.82
5,Cc1ccc(S(=O)(=O)N(C)/N=C2/C(=O)N(CC(=O)O)c3ccccc32)cc1,27.7
6,Cc1cccc2sc(NC(=O)CCn3cccc3)nc12,1.51
7,Cc1ccccc1OCC(=O)OCC(=O)c1ccc(OCc2ccccc2)cc1,23.9
8,COc1cccc(/C=N/NC(=O)c2ccc(=O)[nH]n2)c1O,15.2
9,COCCCNC(=O)CCc1c(C)nc2c(c(C)nn2-c2ccccc2)c1C,-1.85
10,COc1ccc(/C=N/NC(=O)COc2cccc3ccccc23)c(C(=O)O)c1OC,-1.07
11,COc1ccc(CC2(CO)CCN(CC3=Cc4cc(Cl)ccc4OC3)CC2)cc1,-58.3
12,Cc1nn(-c2ccc(N3CCOCC3)nn2)c(C)c1CCC(=O)NCc1ccccc1F,8.51
13,CCn1nc(C)cc1-c1nnc(Sc2ncc([N+](=O)[O-])s2)n1C,-19.8
14,CC(=C\c1ccccc1)/C=C1/SC(=S)N(CCC(=O)Nc2ccccn2)C1=O,27.6
15,COc1ccc2c(c1)C(=O)N(c1ccccc1C)C(=O)C2(C)C,1.78
16,CC(C)COc1ccc(C(=S)N2CCCC2)cc1,-11.5
17,Cc1cccc(C(=O)NNC(=O)c2ccc(NS(=O)(=O)c3cccs3)cc2)c1C,0.0304
18,C=CCn1c(SCC(=O)NC23CC4CC(CC(C4)C2)C3)nc2cc(C(=O)O)ccc2c1=O,23.3
19,COc1cc(SC)ccc1C(=O)OCC(=O)NC(=O)NC(C)C,-0.076

row,SMILES,"hERG current change (%, negative = inhibition) at 10uM [%]"
1,O=C(COc1ccc2ccccc2c1Br)NCc1ccccn1,-2.3
2,Cc1cccc(N=CC=C2OC(C)(C)C(C)(C)O2)c1,3.43
3,OCCCNc1cc(-c2ccccc2)nc2cc(-c3ccc(F)cc3)nn12,1.51
4,Cc1cccc(C(=O)Nc2ccccc2NC(=O)c2cccc(C)c2)c1,8.24
5,O=C1CCN(CCc2ccccc2)CCN1[C@H](CSc1ccccc1)Cc1ccccc1,-77.1
6,O=C(OCc1nnc(-c2ccccc2)o1)c1cc(S(=O)(=O)N2CCOCC2)ccc1F,5.79
7,CN(c1ccccc1C(=O)Nc1ccc(S(=O)(=O)N2CCCCC2)cc1)S(C)(=O)=O,0.441
8,COc1cccc(CNC(=O)CCCn2ncn3c(cc4occc43)c2=O)c1,-42.9
9,C=C(C)C1CC=C(C)/C(=N\NC(=O)CNc2cccc3ccccc23)C1 (centres unmarked),9.77
10,COC(=O)c1c(-c2ccc(F)cc2)noc1N,-42.3
11,CC1c2ccsc2CCN1S(=O)(=O)c1ccccc1 (centres unmarked),-18.6
12,COc1cc2c(cc1OC)CN(C(=O)Cn1ccccc1=O)CC2,-2.11
13,COc1cccc(N2CC(C(=O)Nc3nnc(SCC(=O)N4CCOCC4)s3)CC2=O)c1 (centres unmarked),18.1
14,O=C(Nc1ccncc1)c1ccccc1F,7.13
15,CN(C)C(=O)CN1C(=O)C2CC=C(Cl)CC2C1=O (centres unmarked),4.94
16,O=C(Cn1ncc2c3ccccc3n(Cc3cccc(Cl)c3)c2c1=O)N1CCC2(CC1)OCCO2,-69
17,O=C(NCCc1ccccc1)Nc1ccc2c(c1)OCO2,15.5
18,Cc1c(C(=O)N2CCCCC2CCN2CCCC2=O)oc2c(F)cccc12 (centres unmarked),2.28
19,CN(CC(=O)Nc1ccccc1C(F)(F)F)C(=O)Cc1ccccc1F,10.2

row,SMILES,"hERG current change (%, negative = inhibition) at 10uM [%]"
1,COCCCNC(=S)Nc1ccc(C)cc1,7.37
2,CCCn1c(SCc2nc(-c3cccs3)no2)nnc1-c1ccncc1,-4.13
3,O=C(c1cnn2c(C(F)(F)F)cc(-c3cccs3)nc12)N1CCCC1,-8.48
4,COc1ccc2[nH]c3c(=O)n(CCCCC(=O)NCCC(C)C)c(=S)[nH]c3c2c1,16.3
5,CC(C)(C)c1ccc(-c2nnc(SC3CCOC3=O)n2Cc2ccccc2)cc1 (centres unmarked),-33.1
6,CCC(=O)Oc1ccc(NC(=O)CSCc2ccccc2)cc1,6.81
7,O=C(Nc1ccon1)c1ccccc1Cl,10.6
8,O=C(CCNS(=O)(=O)c1ccc(Cl)cc1)N1CCN(c2ccccn2)CC1,-41.5
9,C/C(=C/c1ccccc1)C(=O)N1CCN(c2ccc(F)cc2)CC1,-42.2
10,O=C(CSc1nc2[nH]ncc2c(=O)n1-c1ccc(Cl)c(Cl)c1)NCc1ccccc1Cl,-11.4
11,On1nnc2cc(C(F)(F)F)ccc21,27.7
12,CCOC(=O)C1=C(c2ccccc2)N=C2SCC(=O)N2C1c1cccc(OC)c1 (centres unmarked),-20.2
13,O=S(=O)(c1ccc(Br)cc1)n1c(Cc2ccccc2)nc2ccccc21,2.17
14,CCc1ccc(NC(=O)CN(N=Nc2nonc2C)c2nonc2C)cc1,3.47
15,O=C(CNC(=O)c1cccnc1)N/N=C/c1ccc(O)cc1O,8.97
16,COc1ccccc1N1CCN(C(=O)c2sc3nc4n(c(=O)c3c2C)CCC4)CC1,13.1
17,COc1ccc(N(CC(=O)N2CCc3ccccc3C2)S(C)(=O)=O)cc1Cl,-25.7
18,Cc1ccc(C(=O)NC(C)c2nnc(SCC(=O)NC3CCCC3)n2C)cc1 (centres unmarked),-14
